# Data taken from PubChem BioAssay AID1508623 (National Center for Advancing Translational Sciences (NCATS), 2021).
# Out of some 48,000 compounds screened, about 450 (0.94%) were called active. Not shown: some 19% with an inconclusive outcome. The call rests on the fitted dose curve; in most records, active means well fitted inhibition curve with a large enough effect; inconclusive means small, poorly fitted or top-dose-only effect; inactive means no such curve, though single readings can be large or run the other way. The list shows a part of the results.
# Experiment: Primary qHTS for Identification of Small Molecule Inhibitors of Huntingtin Promoter Activity; further: nearly all actives have a fitted effect of over 50% in size
# Conditions: HEK293 HTT promoter firefly luciferase reporter (activity 0% = vehicle and -100% = no light), 24 h; series mostly up to 57.5 µM; activity change, negative = inhibition: at the top concentration
# In short: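 HEK293 Fluc reporter, 2,500 cells/well, 24 h pre-culture; cpds up to 57.5 uM final, 24 h 37 degrees C; Dual-Glo, 10 min RT; normalized vehicle = 0%, zero RLU = -100%.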
row,Compound,"activity change, negative = inhibition"
1,Cn1cc(C[C@@H](N)C(=O)O)c2ccccc21,inactive: -6.63% [at 25.2 µM]
2,Cc1cccc(NC(=O)C2CCCN(S(=O)(=O)c3c(C)noc3/C=C/N(C)C)C2)c1C (configuration not stated),inactive: -21.2%
3,CCC(Sc1nncn2c1cc1sccc12)C(=O)Nc1cccc(OC)c1 (configuration not stated),inactive: 1.53%
4,Cc1ccc(CN2CCN(C3CCN(C(=O)OC(C)(C)C)CC3)C(=O)C2=O)cc1,inactive: -13.1%
5,CC(C)(C)c1ccc(C(=O)Nc2ccccc2C(=O)OCc2cc(=O)n3ccsc3n2)cc1,inactive: 19.6%
6,C/C(=C(\CCOP(=O)(O)O)SC(=O)c1ccccc1)N(C=O)Cc1cnc(C)nc1N,inactive: -1.77% [at 6.01 µM]
7,Cc1cc2nc3c(=O)n(C)c(=O)n(C)c3nc2cc1N=CN(C)C,inactive: 18.9%
8,CCOC(=O)CC(NC(=O)Cn1nnc(-c2ccccc2C)n1)c1ccc(OC)cc1 (configuration not stated),inactive: -6%
9,CCC(=O)N1CCc2cc(Br)cc(S(=O)(=O)CCC(=O)Nc3ccccc3C)c21,inactive: -6.66%
10,COc1ccc(-c2nc(SCC(=O)NCCCc3ccccc3)n[nH]2)cc1,inactive: -28.5%
11,COc1ccc(NC(=O)CCc2c(C)nn(-c3ccc(N4CCOCC4)nn3)c2C)cc1Cl,inactive: 22.2%
12,CCN(CC)CCCNC(=O)c1oc2c(c1C)-c1nn(Cc3ccc(Cl)cc3)cc1CC2,inactive: -7.53%
13,Cc1ccc2occ(CC(=O)Nc3ccc(S(N)(=O)=O)cc3)c2c1,inactive: -16.4%
14,COc1ccc(NC(=O)Cn2c(C)c3cnn(-c4ccccc4)c(=O)c3c2C)c(OC)c1,inactive: -16.4%
15,Cc1cccc(-c2noc(C3CC(=O)N(c4ccc5c(c4)OCCO5)C3)n2)c1 (configuration not stated),inactive: 4.87%
16,Cc1ccc(N(CC(=O)NC(C)c2ccccc2)S(=O)(=O)c2c(C)noc2C)cc1 (configuration not stated),inactive: -22.9%
17,CCc1ccc(C(=O)c2cn(CC(=O)Nc3ccc(F)cc3)c3cc4c(cc3c2=O)OCO4)cc1,inactive: -27%
18,Cc1cc(OCC(=O)Nc2sc3c(c2C(N)=O)CCCC3)ccc1C(C)C,inactive: -13.2%
19,COCCNC(=O)CCC(=O)NNc1nc2ccccc2c2nc(-c3ccccc3)nn12,inactive: 6.19%
20,CCOc1ccc(NC(=O)CSc2ncc3c(n2)-c2ccccc2N(C)S3(=O)=O)cc1,inactive: -16%
21,Cc1ccc(NC(=O)N2CCC(n3c(C)nc4cccnc43)CC2)c(Cl)c1,inactive: -3.99%
22,Clc1ccccc1-c1nc(Nc2ccccc2)nc2ccc(Br)cc12,inactive: -8.28%
23,Nc1c2c(nc3ccccc13)CCCC2,inactive
24,Cc1cc(C)cc(NC(=O)C2CCN(S(=O)(=O)c3cccc4nonc34)CC2)c1,inactive: -4%
25,COc1ccc(CNC(=O)Nc2cn(CC(C)C)c(=O)c3ccccc23)c(OC)c1,inactive: 5.96%

row,Compound,"activity change, negative = inhibition"
1,CCCCC(CC)COC(=O)C(C#N)=C(c1ccccc1)c1ccccc1 (configuration not stated),inactive
2,CCC(Oc1ccccc1)C(=O)Nc1nnc(S(=O)(=O)Nc2ccccc2)s1 (configuration not stated),inactive: -5.24%
3,Cc1noc(-c2ccccc2OCC(=O)Nc2cccc([N+](=O)[O-])c2)n1,inactive: -5.17%
4,COC(=O)CCc1sc(Nc2ccc(OC)cc2)nc1-c1ccc(OC)cc1,inactive: -15.1%
5,Cc1ccccc1NC(=O)CC1C(=O)NCCN1C(=O)c1cccc(Cl)c1 (configuration not stated),inactive: -2.88%
6,CC(=O)c1ccc(N2CCN(C(=O)NCc3noc4ccc(C)cc34)CC2)cc1,inactive: -30%
7,CCOC(=O)C1CCCN(S(=O)(=O)c2ccc3[nH]c(=O)ccc3c2)C1 (configuration not stated),inactive: -33.8%
8,Cc1ccc(S(=O)(=O)NCc2nc3nc(C)cc(C)n3n2)c(C)c1,inactive: 0%
9,CCOC(=O)c1ccccc1NC(=O)CSc1nc2ncccc2[nH]1,inactive: -19.1%
10,COc1ccc(N2CCN(C(=O)CCS(=O)(=O)c3cc4c(cc3Cl)NC(=O)CO4)CC2)cc1,inactive: -22.9%
11,Cc1ccc(C)c(N(C)C(=O)C2CCN(S(=O)(=O)c3cccc4nsnc34)CC2)c1,inactive: -19.1%
12,COc1ccc(-c2nnn3c2nc(N2CCCC(C)C2)c2ccccc23)cc1 (configuration not stated),inactive: -17.7%
13,CC(=O)c1cc(C(=O)Nc2cccc(C)c2)c2ccccn12,inactive: 18.8%
14,CCOC(=O)c1ccc(NC(=O)CC2C(=O)N(c3ccccc3)C(=O)N2Cc2cccs2)cc1 (configuration not stated),inactive: -25.4%
15,Cc1ccc(S(=O)(=O)c2[nH]c(-c3ccccc3)nc2SCC(=O)O)cc1,inactive: -17.6%
16,COc1ccc(N2CCN(CC(O)COc3ccc(C(C)(C)C)cc3)CC2)cc1 (configuration not stated),inactive: -23%
17,O=c1c2sc3ccccc3c2n(Cc2ccccc2)c(=O)n1Cc1ccccc1,inactive: -11.9%
18,CCN(C(=O)Cc1c(C(=O)O)[nH]c2ccccc12)c1ccc(OC)cc1,inactive: -20.5%
19,CCc1ccc(CN(C(=O)c2nc(SC)ncc2Cl)C2CCS(=O)(=O)C2)cc1 (configuration not stated),inactive: -23.5%
20,CCC(=O)N1c2ccccc2CC1C(=O)N1CCN(c2ccccc2)CC1 (configuration not stated),inactive: -2.69%
21,CC(C)Cc1nn2c(=O)cc(COC(=O)c3ccc(NC(=O)c4cccs4)cc3)nc2s1,inactive: -2.18%
22,CC(=O)c1ccc(N2CCN(C(=O)C3CCN(S(=O)(=O)c4cccc5nonc45)CC3)CC2)cc1,inactive: -12.4%
23,CCOc1ccccc1NC(=O)Cn1c(=O)ccc2cc(S(=O)(=O)N3CCC(C)CC3)ccc21,inactive: -35%
24,CCOC(=O)c1ccc(NC(=O)CCc2c(C)nc3c(c(C)nn3C)c2C)cc1,inactive: -26.2%
25,CCOC(=O)C1CCN(C(=O)C2COc3ccccc3C2)CC1 (configuration not stated),inactive: -17.8%

row,Compound,"activity change, negative = inhibition"
1,O=C(c1cc2ccccc2oc1=O)N(Cc1cccc(Cl)c1)C1CCS(=O)(=O)C1 (configuration not stated),inactive: -10.3%
2,COc1cccc(-n2ccnc2SCC(=O)Nc2cccc(C)c2C)c1,inactive: -16.5%
3,CCc1ccc(NC(=O)Cn2cnc3sc(C)c(S(=O)(=O)N4CCC(C)CC4)c3c2=O)cc1,inactive: -17.4%
4,CCCC(=O)NCC(c1ccc2c(c1)OCO2)N1CCN(c2ccc(F)cc2)CC1 (configuration not stated),inactive: -22%
5,COc1ccc(-n2ncc(C(=O)NCc3ccccc3)c2C2CCN(C(=O)OC(C)(C)C)CC2)cc1,inactive: -14.6%
6,COc1ccc(-c2nc3c(C#N)c[nH]n3c2NC2CCCCC2)c(OC)c1,inactive: -29.3%
7,COc1ccc(CCNC(=O)CCn2c(=O)c3cccn3c3ccc(F)cc32)c(OC)c1OC,inactive: 2.65%
8,Cc1ccc(OCc2nc3ccccc3n2CC(C)C)cc1,inactive: -5.63%
9,CCOc1ccccc1CNC(=O)Nc1cn(CC(C)C)c(=O)c2ccccc12,inactive: -16.7%
10,CC(Oc1ccccc1)C(=O)Nc1nc2ccc(S(N)(=O)=O)cc2s1 (configuration not stated),inactive: -14%
11,Cc1cc2c(cc1S(=O)(=O)NCc1ccc(N(C)C)cc1)OCC(=O)N2,inactive: -36.4%
12,COc1ccc(N(CC(=O)NC(C)c2ccccc2)S(=O)(=O)c2c(C)noc2C)cc1 (configuration not stated),inactive: -8.12%
13,Cc1ccc(CN2CCC(CNc3ncnc4onc(-c5ccc(Cl)cc5)c34)CC2)cc1,inactive: -19.6%
14,CCOC(=O)c1noc2ncnc(N3CCN(c4ccccc4OC)CC3)c12,inactive: -20.7%
15,COc1cc(C2NC(=O)NC(C)=C2C(=O)Nc2cc(C)cc(C)c2)ccc1O (configuration not stated),inactive: -2.1%
16,COc1ccc2c(c1)c(C1=C(c3c[nH]c4ccccc34)C(=O)NC1=O)cn2CCCN(C)C,inactive: -22.3%
17,CC(C)(C)NS(=O)(=O)c1ccc2nc(NC(=O)c3cccnc3)sc2c1,inactive: 0.178%
18,COC(=O)CNC(=O)Nc1cc(C(=O)NCc2ccc(C)cc2)ccc1N1CCCC1,inactive: -19.6%
19,COC(=O)C1CCN(S(=O)(=O)c2cc3c4c(c2)C(C)C(=O)N4CCC3)CC1 (configuration not stated),inactive: -10.9%
20,CC(=O)N1c2ccccc2CC1C(=O)N1CCN(c2ccc(F)cc2)CC1 (configuration not stated),inactive: -12.2%
21,COc1ccc(C)cc1NC(=O)c1oc2ccc(S(=O)(=O)N(C)C3CCCCC3)cc2c1C,inactive: -5.8%
22,O=C(Nc1ccc(F)cc1F)c1ccc(CN2CC(=O)N3CCCCC3C2=O)cc1 (configuration not stated),inactive: -17.8%
23,CC(C)(C)c1cc(C(C)(C)C)c2oc(=O)c(-c3nc4ccccc4[nH]3)cc2c1,inactive: -20.2%
24,O=C(CSc1nc2ccccc2c2nc(-c3ccccc3)nn12)Nc1ccc(Br)cc1,inactive: 17.7%
25,Cc1ccc(Cn2c(SCC(=O)NCc3ccc(Cl)cc3)nc3ccsc3c2=O)cc1,inactive: -8.02%

row,Compound,"activity change, negative = inhibition"
1,COCCCNC(=O)Cn1c(=O)n(-c2ccc(C)cc2)c(=O)c2c1c1cc(C)ccc1n2C,inactive: -3.08%
2,CCS(=O)(=O)N1CC(=O)N(c2ccccc2C)C(C)(C(=O)NC2CCCCC2)C1 (configuration not stated),inactive: -1.79%
3,O=c1cc(-c2ccccc2)oc2cc(O)cc(O)c12,inactive: 43%
4,Cc1ccc(Cl)cc1N1CCN(C(=O)c2cn(C3CCCCC3)c(=O)c3c2c2ccccc2n3C)CC1,inactive: -19.6%
5,CN(C)c1ccc(C(CNC(=O)COc2ccc(Cl)cc2)N2CCOCC2)cc1 (configuration not stated),inactive: -6.16%
6,CC(C)c1ccc(S(=O)(=O)c2nnn3c2nc(NCCc2ccccc2)c2sccc23)cc1,inactive: -15.1%
7,Cc1ccc(CNC(=O)c2cc3sccc3n2Cc2ccc(Cl)cc2)cc1,inactive: -9.53%
8,CC(CCc1ccccc1)NC(=O)Cn1ncc2c3ccccc3n(Cc3ccc(F)cc3)c2c1=O (configuration not stated),inactive: -12.5%
9,CCCn1c(=O)c2sccc2n2c(CCCC(=O)NCCc3ccc(Cl)cc3)nnc12,inactive: -8.31%
10,CC(=O)Nc1ccc(S(=O)(=O)NCC2CCC(C(=O)NCCc3ccccc3)CC2)cc1 (configuration not stated),inactive: -2.7%
11,Cc1nn(C(=O)c2cccc([N+](=O)[O-])c2C)c(C)c1S(=O)(=O)N1CCOCC1,inactive: -8.86%
12,Cc1ccc(NC(=O)CC(C)S(=O)(=O)c2ccc3c(c2)NC(=O)CO3)c(C)c1 (configuration not stated),inactive: 19.4%
13,CCO[C@H](Cc1ccc(OCCc2ccc(OS(C)(=O)=O)cc2)cc1)C(=O)O,inactive: 11.7%
14,COCC(=O)Oc1c(Sc2ccc(C)cc2)c(C)nn1C(C)(C)C,inactive: -24.3%
15,COc1cccc(N2CC(NC(=O)C(c3ccccc3)c3ccccc3)CC2=O)c1 (configuration not stated),inactive: -27.8%
16,c1cnc2cc3c(cc2n1)C1CNCC3C1,inactive: 23.1%
17,Cc1ccc2nc(-c3ccsc3)c(Nc3ccccc3C)n2c1,inactive: -15.5%
18,O=C(NCc1ccc(F)cc1)c1ccc(CSCc2cccc(Cl)c2)o1,inactive: -18.9%
19,COCCNC(=O)Cc1ccc(NC(=O)N2CCCCc3ccccc32)cc1,inactive: -3.47%
20,COCCNC(=O)c1cnn(-c2ccc(C)cc2C)c1C1CCN(C(=O)OC(C)(C)C)CC1,inactive: -16.8%
21,COC(=O)c1scc(-c2ccccc2)c1S(=O)(=O)Nc1ccccc1,inactive: -18.9%
22,Cc1ccc(-c2cc(C(F)(F)F)n3nc(C(=O)Nc4ccc(Cl)cc4Cl)cc3n2)cc1,inactive: -15.4% [at 11.5 µM]
